Source: patent US20250136594A1 (Tango Therapeutics, Inc., priority 2022, published 2025)

What was measured:
[1] = system: HAP1 MTAP-deleted cell line; assay: Viability assay, HAP1 MTAP-deleted cell line; assay type: cell-based; settings: Homo sapiens; viability assay, HAP1 MTAP-deleted cell line; read-out: Hap1 MTAP deleted viability IC50
[2] = system: SDMA in HAP1 MTAP-intact cell line (PRMT5 inhibition); assay: SDMA in-cell western assay, HAP1 MTAP-intact cell line; settings: Homo sapiens, HAP1, read-out: Hap1 MTAP intact IC50
[3] = system: SDMA in HAP1 MTAP-deleted (MTAP-null) cell line (PRMT5 inhibition); assay: SDMA in-cell western assay, HAP1 MTAP-deleted cell line; settings: for IC50 / IC90: Homo sapiens; for IC50: HAP1, read-out: Hap1 MTAP deleted IC50; for IC90: HAP1, read-out: Hap1 MTAP deleted IC90; for Hap1 MTAP intact/deleted ratio: ratio of SDMA IC50 in HAP1 MTAP-intact to HAP1 MTAP-deleted cell line

| SMILES | IC50 [1] | IC50 [2] | IC50 [3] | IC90 [3] | Hap1 MTAP intact/deleted ratio [3] |
| --- | --- | --- | --- | --- | --- |
| CC[C@@H](C)CN(Cc1ccccn1)C(=O)C(=O)Nc1cnc(N)c2cn[nH]c12 [Compound 115, (R)—N^1-(4-amino-1H-pyrazolo[4,3-c]pyridin-7-yl)-N^2-(2-methylbutyl)-N^2-(pyridin-2-ylmethyl)oxalamide] | < 0.1 µM | > 0.05 µM | < 0.005 µM | < 0.075 µM | A (IC50 ratio greater than or equal to 30 fold) |
| Cc1cccnc1CN(Cc1ccc(F)cc1)C(=O)C(=O)Nc1cnc(N)c2cn[nH]c12 [Compound 119, N-(4-amino-1H-pyrazolo[4,3-c]pyridin-7-yl)-N′-[(4-fluorophenyl)methyl]-N′-[(3-methyl-2-pyridyl)methyl]oxamide] | < 0.1 µM | 0.005 to 0.05 µM | < 0.005 µM | < 0.075 µM | A (IC50 ratio greater than or equal to 30 fold) |
| Nc1ncc(NC(=O)C(=O)N(Cc2ccccc2)Cc2cccc3ccccc23)c2[nH]ncc12 [Compound 122, N-(4-amino-1H-pyrazolo[4,3-c]pyridin-7-yl)-N′-benzyl-N′-(1-naphthylmethyl)oxamide] | < 0.1 µM | 0.005 to 0.05 µM | < 0.005 µM | < 0.075 µM | B (IC50 ratio greater than or equal to 15 fold but lower than 30 fold) |
| CC(c1ccc(C(F)(F)C(F)(F)F)cc1)N(C)C(=O)C(=O)Nc1cnc(N)c2cn[nH]c12 (stereo not shown) [Compound 123, N-(4-amino-1H-pyrazolo[4,3-c]pyridin-7-yl)-N′-methyl-N′-[1-[4-(1,1,2,2,2-pentafluoroethyl)phenyl]ethyl]oxamide] | < 0.1 µM | 0.005 to 0.05 µM | < 0.005 µM | < 0.075 µM | B (IC50 ratio greater than or equal to 15 fold but lower than 30 fold) |
| CCN(C(=O)C(=O)Nc1cnc(N)c2cn[nH]c12)[C@H](C)c1ccc(C(F)(F)F)cc1F [Compound 126, N-(4-Amino-1H-pyrazolo[4,3-c]pyridin-7-yl)-N′-ethyl-N′—[(1R)-1-[2-fluoro-4-(trifluoromethyl)phenyl]ethyl]oxamide] | < 0.1 µM | 0.005 to 0.05 µM | < 0.005 µM | < 0.075 µM | B (IC50 ratio greater than or equal to 15 fold but lower than 30 fold) |
| CC(C)CN(C(=O)C(=O)Nc1cnc(N)c2cn[nH]c12)[C@H](C)c1ccccc1 [Compound 129, (R)—N^1-(4-amino-1H-pyrazolo[4,3-c]pyridin-7-yl)-N^2-isobutyl-N^2-(1-phenylethyl)oxalamide] | < 0.1 µM | > 0.05 µM | < 0.005 µM | < 0.075 µM | A (IC50 ratio greater than or equal to 30 fold) |
| Cc1ccccc1CN(C(=O)C(=O)Nc1cnc(N)c2cn[nH]c12)C(C)C [Compound 133, N-(4-amino-1H-pyrazolo[4,3-c]pyridin-7-yl)-N′-isopropyl-N′-(o-tolylmethyl)oxamide] | < 0.1 µM | > 0.05 µM | < 0.005 µM | < 0.075 µM | A (IC50 ratio greater than or equal to 30 fold) |
| CN(Cc1ccc(C(F)(F)F)cc1Cl)C(=O)C(=O)Nc1cnc(N)c2cn[nH]c12 [Compound 137] | 0.1 to 1 µM | > 0.05 µM | < 0.005 µM | 0.075 to 0.125 µM | A (IC50 ratio greater than or equal to 30 fold) |
| CCN(C(=O)C(=O)Nc1cnc(N)c2cn[nH]c12)C(C)c1ccc(S(F)(F)(F)(F)F)cc1 (stereo not shown) [Compound 140, N-(4-amino-1H-pyrazolo[4,3-c]pyridin-7-yl)-N′-ethyl-N′-[1-[4-(pentafluoro-sulfanyl)phenyl]ethyl]oxamide] | < 0.1 µM | 0.005 to 0.05 µM | < 0.005 µM | < 0.075 µM | C (IC50 ratio of less than 15 fold) |
| Nc1ncc(NC(=O)C(=O)N(Cc2ccccn2)Cc2ccccc2Cl)c2[nH]ncc12 [Compound 142, N-(4-amino-1H-pyrazolo[4,3-c]pyridin-7-yl)-N′-[(2-chlorophenyl)methyl]-N′-(2-pyridylmethyl)oxamide] | < 0.1 µM | 0.005 to 0.05 µM | < 0.005 µM | < 0.075 µM | B (IC50 ratio greater than or equal to 15 fold but lower than 30 fold) |
| Nc1cccc(CN(Cc2ccccc2)C(=O)C(=O)Nc2cnc(N)c3cn[nH]c23)c1 [Compound 145, N′-[(3-aminophenyl)methyl]-N-(4-amino-1H-pyrazolo[4,3-c]pyridin-7-yl)-N′-benzyl-oxamide] | < 0.1 µM | > 0.05 µM | < 0.005 µM | < 0.075 µM | B (IC50 ratio greater than or equal to 15 fold but lower than 30 fold) |
| C[C@H](c1ccc(C(F)(F)F)cn1)N(C)C(=O)C(=O)Nc1cnc(N)c2cn[nH]c12 [Compound 147, N-(4-amino-1H-pyrazolo[4,3-c]pyridin-7-yl)-N′-methyl-N′—[(1R)-1-[5-(trifluoromethyl)-2-pyridyl]ethyl]oxamide] | < 0.1 µM | > 0.05 µM | < 0.005 µM | < 0.075 µM | A (IC50 ratio greater than or equal to 30 fold) |
| CCN(C(=O)C(=O)Nc1cnc(N)c2cn[nH]c12)[C@@H](C)c1ccc(C(F)(F)F)cc1F [Compound 153, N-(4-Amino-1H-pyrazolo[4,3-c]pyridin-7-yl)-N′-ethyl-N′—[(1S)-1-[2-fluoro-4-(trifluoromethyl)phenyl]ethyl]oxamide] | 0.1 to 1 µM | > 0.05 µM | 0.005 to 0.05 µM | > 0.125 µM | A (IC50 ratio greater than or equal to 30 fold) |
| CC(=O)Nc1cccc(CN(Cc2ccccc2)C(=O)C(=O)Nc2cnc(N)c3cn[nH]c23)c1 [Compound 161, N′-[(3-acetamidophenyl)methyl]-N-(4-amino-1H-pyrazolo[4,3-c]pyridin-7-yl)-N′-benzyl-oxamide] | < 0.1 µM | > 0.05 µM | < 0.005 µM | < 0.075 µM | A (IC50 ratio greater than or equal to 30 fold) |
| CN(Cc1ccccc1-c1ccccc1)C(=O)C(=O)Nc1cnc(N)c2cn[nH]c12 [Compound 164, N-(4-amino-2H-pyrazolo[4,3-c]pyridin-7-yl)-N′-methyl-N′-[(2-phenylphenyl)methyl]oxamide] | 0.1 to 1 µM | > 0.05 µM | < 0.005 µM | > 0.125 µM | A (IC50 ratio greater than or equal to 30 fold) |
| Cc1cc(C(F)(F)C(F)(F)F)ccc1CN(C)C(=O)C(=O)Nc1cnc(N)c2cn[nH]c12 [Compound 184, N-(4-Amino-1H-pyrazolo[4,3-c]pyridin-7-yl)-N′-methyl-N′-[[2-methyl-4-(1,1,2,2,2-pentafluoroethyl)phenyl]methyl]oxamide] | < 0.1 µM | > 0.05 µM | < 0.005 µM | < 0.075 µM | A (IC50 ratio greater than or equal to 30 fold) |
| CN(Cc1c(F)cc(C(F)(F)F)cc1F)C(=O)C(=O)Nc1cnc(N)c2cn[nH]c12 [Compound 195, N-(4-Amino-1H-pyrazolo[4,3-c]pyridin-7-yl)-N′—[[2,6-difluoro-4-(trifluoromethyl)phenyl]methyl]-N′-methyl-oxamide] | < 0.1 µM | > 0.05 µM | < 0.005 µM | < 0.075 µM | A (IC50 ratio greater than or equal to 30 fold) |
